Measured values: paper PMC4336329 (PLoS ONE, 2015)
Among all 310,000 compounds or so, about 2,200 (0.71%) showed an effect of 50% or more. Effects have a minus sign here. This is one part of the list.

Each compound was assayed against human ether-à-go-go-related gene (hERG) potassium channel (human, UniProt Q12809) (assay: primary screen, population patch clamp on CHO cells stably expressing hERG).
Sequence of human ether-à-go-go-related gene (hERG) potassium channel (Q12809 whole entry, looked up): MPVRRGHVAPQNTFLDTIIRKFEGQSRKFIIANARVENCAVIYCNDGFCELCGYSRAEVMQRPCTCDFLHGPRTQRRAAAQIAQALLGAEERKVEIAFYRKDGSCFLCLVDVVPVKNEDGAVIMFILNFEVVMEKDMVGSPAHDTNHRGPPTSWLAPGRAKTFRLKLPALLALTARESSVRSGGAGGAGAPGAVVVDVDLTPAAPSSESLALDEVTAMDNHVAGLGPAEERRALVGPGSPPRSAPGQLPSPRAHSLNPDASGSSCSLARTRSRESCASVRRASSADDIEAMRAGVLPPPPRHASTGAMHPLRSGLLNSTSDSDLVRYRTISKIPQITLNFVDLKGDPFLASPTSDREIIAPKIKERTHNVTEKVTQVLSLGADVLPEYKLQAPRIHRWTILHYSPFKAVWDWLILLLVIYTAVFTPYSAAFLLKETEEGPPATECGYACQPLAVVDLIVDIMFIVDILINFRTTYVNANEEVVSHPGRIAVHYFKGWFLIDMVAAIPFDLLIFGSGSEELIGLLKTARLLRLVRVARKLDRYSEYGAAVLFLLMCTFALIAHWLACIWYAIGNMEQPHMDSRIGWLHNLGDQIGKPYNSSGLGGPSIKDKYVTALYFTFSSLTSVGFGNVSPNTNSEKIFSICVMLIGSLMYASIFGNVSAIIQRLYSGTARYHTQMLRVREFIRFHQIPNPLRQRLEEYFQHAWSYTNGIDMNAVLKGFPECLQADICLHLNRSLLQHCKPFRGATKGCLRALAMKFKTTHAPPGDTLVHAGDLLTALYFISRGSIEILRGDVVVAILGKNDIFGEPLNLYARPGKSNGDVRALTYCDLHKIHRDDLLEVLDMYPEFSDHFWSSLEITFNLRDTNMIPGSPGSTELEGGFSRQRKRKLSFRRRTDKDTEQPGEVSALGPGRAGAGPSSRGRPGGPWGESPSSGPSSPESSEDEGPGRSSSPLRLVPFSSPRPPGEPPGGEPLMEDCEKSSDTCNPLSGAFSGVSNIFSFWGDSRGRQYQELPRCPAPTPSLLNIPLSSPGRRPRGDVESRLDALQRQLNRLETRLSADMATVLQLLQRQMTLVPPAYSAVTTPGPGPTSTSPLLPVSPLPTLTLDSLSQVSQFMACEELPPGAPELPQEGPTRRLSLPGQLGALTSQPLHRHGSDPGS

SMILES	hERG current change (%, negative = inhibition) at 1uM
COc1ccc(CCNC(=O)COC(=O)/C=C/c2ccc(OC)c(OC)c2)cc1	12.2%
O=C(NCc1ccc2c(c1)OCO2)c1c[nH]c2ccc(S(=O)(=O)N3CCOCC3)cc2c1=O	-0.846%
Cc1ccc(/C=C/C(=O)CCC(=O)O)cc1	12.7%
CCCC1CCC(=C(C#N)C(N)=O)CC1 (stereo not drawn)	0.211%
CCN(CC)S(=O)(=O)c1ccc(O)c(NC(=O)c2ccc(N3CCOCC3)c([N+](=O)[O-])c2)c1	6.35%
CC(C)(C)C(=O)Nc1nc(NC(=O)C(C)(C)C)nc(-c2ccccc2Cl)n1	13.9%
CC1COc2ccccc2N1S(=O)(=O)c1ccc(Cl)cc1 (stereo not drawn)	0.0956%
CCc1ccc(CN2CCN(Cc3ccc(SC)cc3)CC2)cc1.O=C(O)C(=O)O	-27.1%
O=C(/C=C/c1ccccc1)OCc1cnc(Cl)s1	9.35%
Cc1[nH]c2ccccc2c1CCO	6.26%
CCN1C(=O)[C@H]2[C@@H](c3ccc(-c4ccc(Cl)c(Cl)c4)cc3)N3CCCC[C@@]3(C(=O)OC)[C@H]2C1=O.O=C(O)C(F)(F)F	21.3%
ClC1(Cl)CC1Cn1c(C2CC2)nc2ccccc21 (stereo not drawn)	13.2%
O=C(c1ccco1)N1CCN(C(=O)C2CCN(S(=O)(=O)Cc3ccccc3)CC2)CC1	8.18%
Cc1cccc(N2CCN(c3nc4ccc(Cl)cc4n4cnnc34)CC2)c1C	11.9%
COc1ccc(NC(=O)c2ccc3nccnc3c2)cc1	15.1%
Cc1cc(C)c2c(N)c(C(=O)N3CCCCCC3)sc2n1	-7.9%
COc1ccc(NC(=O)Nc2ccc(OCc3ccccc3)cc2)cn1	15%
O=C(O)C1=C[C@@H](C2CCCCC2)C[C@@H](OCCCCO)O1	8.45%
Cc1cc(C2(c3ccc(O)c(C)c3)C(=O)Nc3ccccc32)ccc1O	-2.76%
Br.N=C1c2ccccc2CN1NC(=O)c1ccc(F)cc1	6.74%
O=C(NNC(=O)c1ccc2ccccc2n1)c1ccc(O)cc1	7.06%

SMILES	hERG current change (%, negative = inhibition) at 1uM
Cc1ccc(C(=O)N2CCN(S(=O)(=O)c3ccccc3[N+](=O)[O-])CC2)o1	4.89%
COc1ccc(-c2nc(N)nc(N)n2)c(O)c1	10.1%
COc1ccc(C(=O)OC2C[C@H]3CC[C@H](C2)N3C)cc1OC.Cl (stereo partly drawn)	11.1%
C/C(=N\Nc1ccc(S(N)(=O)=O)cc1[N+](=O)[O-])c1ccco1	10.3%
C=C(C)c1cccc(C(C)(C)NC(=O)NC(c2ccccc2)c2ccc(OC)cc2)c1 (stereo not drawn)	-5.4%
O=C(NCC1CCCO1)C1CCN(C(=O)c2ccc(Cl)cc2)CC1 (stereo not drawn)	-4.16%
Cc1cccc(-n2cc(CN3CCN(Cc4nccn4C)CC3)c(-c3cccc(F)c3)n2)c1	6.11%
CCC(=O)Nc1cccc(C2=NOC3(C2)C[C@@H](C(N)=O)N(C(=O)c2cc([N+](=O)[O-])cc([N+](=O)[O-])c2C)C3)c1 (stereo partly drawn)	8.81%
CCCCN(Cc1ccccc1)C1CCN(Cc2ccccc2)CC1	-14.5%
COc1ccc(/C=C(/NC(=O)c2ccc([N+](=O)[O-])cc2)C(=O)NC(C)(C)C)cc1	-10.7%
CCOC(=O)C1=C(O)C(=O)NC(c2ccccc2)=C(OC2CCCCC2)C1	7.57%
CN(C)CCNC(=S)Nc1ccccc1Cl	4.45%
CCNc1sc(S(C)(=O)=O)nc1S(=O)(=O)c1ccc(Cl)cc1	18.1%
Cc1ccc(CNC(=O)C2(S(=O)(=O)c3ccc(C)cc3)CC2)cc1	5.08%
COc1ccc(Cl)cc1C(=O)NNC(=O)c1cccc(S(=O)(=O)N(C)C)c1	5.46%
O=C(NCCc1cccc(F)c1)C1CCCN(c2nc3ccccc3s2)C1 (stereo not drawn)	10.7%
Cc1c(C(=O)N2CCN(c3ccc(C(F)(F)F)cn3)CC2)oc2ccccc12	5.58%
CC(NC(=O)COC(=O)C1CSC2(C)CCC(=O)N12)C12CC3CC(CC(C3)C1)C2 (stereo not drawn)	9.61%
COc1cc(/C=N\Nc2nc3ccccc3[nH]2)cc(OC)c1OC	-5.36%
COc1nn(CC(=O)N2N=C(C)CC2(O)C(F)F)cc1[N+](=O)[O-] (stereo not drawn)	4.52%
COc1ccc(-c2cc(C(F)(F)F)n3nc(C(=O)NCc4ccco4)cc3n2)cc1OC	15.1%

SMILES	hERG current change (%, negative = inhibition) at 1uM
C/C(=N\N(C)c1ccccc1)c1c(O)[nH]c(=O)[nH]c1=O	11.9%
CCOc1cc(S(=O)(=O)NCC2OCCc3ccccc32)c(OCC)cc1-n1cnnn1 (stereo not drawn)	4.59%
CC1CN(Cc2ccccn2)CCC1=O.Cl (stereo not drawn)	3.93%
O=[N+]([O-])c1ccc2nonc2c1Nc1ccccc1	17.4%
Cn1nc(C(C)(C)C)cc1C(=O)Nc1nc2c(s1)C(=O)CC(C)(C)C2	-12.5%
COC(=O)c1[nH]c2cccc(OC)c2c1NC(=O)C(C)N1CCC(C)CC1 (stereo not drawn)	-10.1%
COC(=O)C1=C(C(=O)OC)C(c2cc([N+](=O)[O-])ccc2O)c2sc(=O)[nH]c2S1 (stereo not drawn)	6.96%
Cc1cc(Br)ccc1-n1[nH]c(C)c(C=Nc2cccc3nsnc23)c1=O	15.7%
CCN(CC)CCOCCOc1ccccc1F	6.56%
Cn1c(CCN2CCCCC2)nc2cc(NS(=O)(=O)c3ccc(F)cc3)ccc21	-57.5%
COc1cccc(NC(=O)COC(=O)c2cccnc2)c1	3.46%
CC(=O)c1sc2nc(-c3ccc(C)cc3)c3c(c2c1N)CCCC3	7.59%
COc1ccc(-n2nc(C(=O)Nc3nc4ccc(OC)cc4s3)c3ccccc3c2=O)cc1	17.4%
COc1cccc(NC(=O)CSc2nc3ccccc3c(=O)n2Cc2cccs2)c1	8.49%
O=C1NC(=NCc2ccccc2)S/C1=C\c1ccccc1	25.6%
CCN(CC)S(=O)(=O)c1ccc(C(=O)NNc2nc(-c3ccccc3)c3cc(Br)ccc3n2)cc1	16.3%
COCCCNC(=O)c1ccc(N(C)S(=O)(=O)c2ccc(OC)cc2)cc1	-13.5%
O=C([C@@H]1CC=C[C@@H]2CCN(C3CC3)C(=O)[C@@H]21)N1CCN(c2ccccc2)CC1	11.3%
COc1ccc(/C=N/NS(=O)(=O)c2ccc(F)cc2)cc1COc1cc(F)ccc1[N+](=O)[O-]	-19%
CCc1nnc(NC(=O)CSc2nnc(C(C)NC(=O)c3ccccc3)n2C)s1 (stereo not drawn)	21%
Cl.O=C(Cc1ccccn1)Nc1ccccc1	12.1%

SMILES	hERG current change (%, negative = inhibition) at 1uM
O=S(=O)(Nc1ncccn1)c1ccc(-n2cnnn2)cc1	10.6%
CC(C)N(Cc1ccccc1)C(=O)CCc1ccccc1	10.5%
O=C([O-])c1ccc(-[n+]2c(-c3ccccc3)cc(-c3ccccc3)cc2-c2ccccc2)cc1	12.9%
Cc1ccnc(N/C=C(/NC(=O)c2ccccc2)C(=O)N/N=C\c2ccc(Cl)cc2)n1	3.84%
CCCCC1=CC2=CC(=O)C(C)(OC(=O)CC)C(=O)C2=CN1CCCCO (stereo not drawn)	12.9%
CCCCC(=O)Nc1cccc(-c2cn3ccsc3n2)c1	2.71%
CCN(CCn1cccn1)C(=O)c1cccc(OC2CCN(S(C)(=O)=O)CC2)c1	7.43%
COc1ccc(C)cc1NC(=O)CN(c1ccc(F)cc1)S(C)(=O)=O	7.3%
CCCCNS(=O)(=O)c1ccc(OCC(=O)OC)cc1	-0.496%
CC(C)(C)C(=O)NCCCc1nc2ccccc2n1CCCOc1ccc(Cl)cc1	-9.5%
COC(=O)c1ccc(Oc2nc(NC(C)C)nc(NC(C)C)n2)cc1	11.4%
CC(OC(=O)CCOc1ccccc1)C(=O)Nc1ccc(Cl)cn1 (stereo not drawn)	5.07%
CCNC(=O)Cn1cc(C(F)(F)F)cc(Cl)c1=O	11.3%
Cc1cccc(C)c1NC(=S)NC1CCCCC1	11.7%
COc1cc(-c2cc(C(=O)Nc3ccc(S(=O)(=O)NCc4ccco4)cc3)c3ccccc3n2)cc(OC)c1OC	11.8%
CC(=O)Nc1nc(-c2ccccc2)cc(-c2ccco2)c1C#N	7.82%
CCc1nnc(NS(=O)(=O)c2ccc(N=Cc3c(C)[nH]n(-c4ccc(C)cc4)c3=O)cc2)s1	-3.72%
O=C(Nc1ccc(O)cc1)c1ccc2c(c1)C(=O)N(N1C(=O)c3ccccc3C1=O)C2=O	13.5%
CCCNC(=O)COc1ccc2c(=O)c(Oc3ccccc3F)coc2c1	-38.2%
Cc1cc2c(o1)CC(C)(C)CC2=O	6.39%
C#CCOCCOCCOCCNc1nc(N2CCN(C(=O)[C@H](CCC(=O)O)n3cc(C(N)CO)nn3)CC2)nc(N2CCN(C(=O)[C@H](CCC(=O)O)n3cc(C(N)[C@H](C)CC)nn3)CC2)n1.Cl (stereo partly drawn)	-9.48%
